The full ranking holds about 110,000 compounds; the median of “z-score” is about -0.1, and the highest 2% start at about 2. This is one part of the list. Activity calls are given as the source filed them.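 The calls were made as follows: active = z-score in the third read window above 3 or below -3; inactive = the rest.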
Target: Metabotropic glutamate receptor 8 (Rattus norvegicus) (UniProt P70579)
Assay: mGluR8 Gi/Go-coupled signaling modulation – cell-based, rat, thallium flux, HTS, primary screen (AID 488969)
Settings: HEK293 rat mGluR8, GIRK (G protein-gated inwardly rectifying potassium channel) thallium flux, FluoZin2; at 10 µM; stronger effect = higher value; submaximal glutamate (EC20) added with thallium

Chain of UniProt P70579 (P70579 whole entry, looked up): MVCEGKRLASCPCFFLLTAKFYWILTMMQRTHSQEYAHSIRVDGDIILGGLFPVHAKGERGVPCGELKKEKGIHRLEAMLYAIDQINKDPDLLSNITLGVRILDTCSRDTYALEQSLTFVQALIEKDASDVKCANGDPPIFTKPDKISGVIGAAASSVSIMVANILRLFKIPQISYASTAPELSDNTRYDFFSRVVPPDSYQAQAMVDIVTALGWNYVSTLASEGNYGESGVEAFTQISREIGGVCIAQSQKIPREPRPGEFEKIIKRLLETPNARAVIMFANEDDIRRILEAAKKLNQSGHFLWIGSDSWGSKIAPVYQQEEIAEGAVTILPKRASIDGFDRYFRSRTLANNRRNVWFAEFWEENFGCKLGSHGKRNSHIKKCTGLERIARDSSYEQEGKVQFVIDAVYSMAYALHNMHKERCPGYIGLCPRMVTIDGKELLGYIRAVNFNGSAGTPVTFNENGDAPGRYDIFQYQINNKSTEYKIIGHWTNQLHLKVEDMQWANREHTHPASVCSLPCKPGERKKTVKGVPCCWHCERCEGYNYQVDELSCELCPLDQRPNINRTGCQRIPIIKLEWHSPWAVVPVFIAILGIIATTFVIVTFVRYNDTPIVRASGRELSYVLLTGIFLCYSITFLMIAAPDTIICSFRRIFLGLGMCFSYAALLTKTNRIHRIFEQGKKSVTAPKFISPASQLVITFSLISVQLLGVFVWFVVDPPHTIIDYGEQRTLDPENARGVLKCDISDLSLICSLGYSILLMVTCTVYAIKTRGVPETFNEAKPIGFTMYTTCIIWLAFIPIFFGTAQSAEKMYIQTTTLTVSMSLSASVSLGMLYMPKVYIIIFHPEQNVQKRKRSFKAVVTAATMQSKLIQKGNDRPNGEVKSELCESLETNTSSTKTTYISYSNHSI

SMILES	z-score
CCC1CCCCN1CCNS(=O)(=O)c1ccc2c(c1)oc(=O)n2C (stereo not given)	0.0475
COc1ccc(Nc2ncnc3ccccc23)c(OC)c1	-0.192
Cn1cccc1CC(=O)NNC(=S)Nc1ccc(Cl)cc1	-0.0587
CCOC(=O)C1CCN(C(=O)c2ccc3snnc3c2)CC1	0.612
CCCCn1c(-c2ccco2)n[nH]c1=S	0.805
CSc1nc(=NC(C)=O)ss1	0.199
COc1cc(OC)c(OC)cc1/C=N/NC(=O)c1cc(-c2cccn2C)n[nH]1	-0.38
COC(=O)Cc1c(C)nc2nc(NCc3cccc([N+](=O)[O-])c3)[nH]n2c1=O	-0.123
C/C(=N\NC(=O)c1cccc(C)c1)c1cccc(NC(=O)c2ccco2)c1	-0.159
O=C(NCCN1C(=O)S/C(=C\c2cccs2)C1=O)[C@H](Cc1ccccc1)N1C(=O)c2ccccc2C1=O	-0.134
O=C(COc1ccc(Cl)cc1)N1CCN(S(=O)(=O)c2ccc(Cl)cc2)CC1	-0.0869
CC1(C)Cc2ccccc2/C(=C/C(=O)N2CCCCCC2)N1	-0.0953
Cc1ccc(C(=O)N2CCN(Cc3ccc4c(c3)OCO4)CC2)o1	-0.67
Cc1cc(C)c(S(=O)(=O)/N=C2\C=CC(=O)C(Cl)=C2)c(C)c1	-0.429
Cc1ccc(NS(=O)(=O)N(C)C)cc1	-0.0604
Cc1nn(Cc2ccc([N+](=O)[O-])cc2)c(=O)n1N(C)c1ncc(C(F)(F)F)cc1Cl	-0.0238
CCN(CC(=O)NCc1cccs1)c1ccc(S(=O)(=O)N2CCOCC2)cn1	-0.111
O=C(Nc1cccc(C(F)(F)F)c1)c1n[nH]c(Cn2cncn2)n1	-0.531
COc1ccc(/C=N/NC(=O)c2nc(Cl)c(Cl)c(N)c2Cl)cc1COc1ccccc1F	-0.375
O=C(NCc1cccs1)c1ccc([N+](=O)[O-])cc1	-0.113
O=C(NCCN1CCN(c2ccccc2)CC1)C1CCN(S(=O)(=O)c2cccs2)CC1	0.198
O=C(NC1CCCCC1)N1CCc2ccccc21	0.225

SMILES	z-score
CC(Oc1ccccc1)C(=O)Nc1cccc(F)c1 (stereo not given)	1.19
O=C(Cn1nnc(-c2ccccc2-n2cnnn2)n1)c1ccccc1	0.414
CC(C)(C)OC(=O)COc1cc(O)c2c(=O)cc(-c3ccccc3)oc2c1	active: 4.76
CCOC(=O)C1=C(C)N(c2ccccc2)C(=O)NC1c1cccc([N+](=O)[O-])c1 (stereo not given)	0.239
O=C(NCCC1=CCCCC1)C1CCN(C(=O)Nc2ccccc2)CC1	-0.194
CCOC(=O)CC(=O)CSc1nc(-c2cccnc2)ccc1C#N	-0.111
COc1ccc2c(c1)nc(SCC(=O)c1cccs1)n2C	0.331
COc1cc(/C=N/n2cnnc2)ccc1OCc1ccccc1	-0.183
COc1ccc(C(CNC(=O)c2cccc(N(C)C)c2)N2CCCC2)cc1 (stereo not given)	0.0976
O=C1CCC([N+](=O)[O-])C(c2cccc(Br)c2)N1 (stereo not given)	-0.329
O=C(Nc1ccc(Cl)cc1)Nc1ccc(N2CCCC2)c(S(=O)(=O)Nc2ccccc2Cl)c1	-0.172
COc1ccc(NC(=O)c2oc3cc(C)c(C)cc3c2C)c(OC)c1	-0.322
CN(C)c1ccc(NC(=O)CC2NCCNC2=O)cc1 (stereo not given)	1.1
O=C(COc1cccc2ccccc12)N1CCN(c2ccccc2)CC1	0.553
COc1ccc(NC(=O)CCN2CCN(S(=O)(=O)c3cc(Cl)ccc3Cl)CC2)cc1	-0.0322
FC(F)(F)c1cnc(/C=C/Nc2ccccc2Cl)c(Cl)c1	-0.0309
Cc1cccc(NC(=O)CN2C(=S)NC(C)(C)CC2C)c1 (stereo not given)	-0.0541
COc1ccc(CCNC(=O)c2ccc(CNS(=O)(=O)c3ccccc3)cc2)cc1OC	0.0244
CC(C)NC(=O)CSc1nnc(C2CC2)n1-c1ccccc1	0.0182
COc1ccc(NC(=O)N2Cc3ccccc3CC2C(=O)NC(C)(C)C)cc1 (stereo not given)	0.00246
CN(C)CCCNCCNC(=O)/C=N\O	-0.494
Cc1ccc2nc(-c3ccc(NC(=S)NC(=O)C(C)C)cc3)sc2c1	-0.127

SMILES	z-score
O=C(Nc1ccc(C(=O)Oc2ccccc2)c(O)c1)c1ccco1	1.21
Cc1ccc(C(=O)NCCN2CCCC2)cc1	0.286
CCCN1CCN(C(c2cc3cc4c(cc3[nH]c2=O)OCO4)c2nnnn2C(C)(C)C)CC1 (stereo not given)	0.00613
CCc1c(C(=O)Nc2nnc(C3CC3)s2)csc1C	1.09
COC(=O)C1CCN(C(=O)COC(=O)[C@@H]2CC(O)CN2S(=O)(=O)c2ccc3c(c2)OCCO3)CC1 (stereo not given in full)	1.01
Cc1sc2nc(CSc3ccccc3)nc(N3CCOCC3)c2c1C	-0.132
O=C(CN1N=C(c2ccc(Cl)cc2)CCC1=O)NCCN1CCc2ccccc2C1	0.242
O=C(c1ccccc1)N1N=C(c2ccccc2)CC1c1ccccc1[N+](=O)[O-] (stereo not given)	0.877
COc1c2ccc(C(=O)NCc3cc(C(F)(F)F)cc(C(F)(F)F)c3)cc2nn1C	-0.0572
CCOC(=O)c1sc(NC(=S)NC(=O)c2ccccc2)c(C(=O)OCC)c1C	0.582
CC(C)c1nc(N2CCN(C(=O)c3ccccc3)CC2)c(C#N)c2c1COC(C)(C)C2	0.413
CS(=O)(=O)N(CC(=O)N1CCN(c2cccc(Cl)c2)CC1)c1ccccc1	0.537
O=C(CC1SC(=NC2CCCCC2)NC1=O)Nc1ccccc1 (stereo not given)	-0.0601
C=CCn1c(=O)n(CCC#N)c(=O)n(CCC#N)c1=O	-0.0814
CC1=C(C(=O)Nc2ccccc2)C(c2ccc(C)o2)n2c(s/c(=C\c3ccco3)c2=O)=N1 (stereo not given)	-0.299
CC(=O)NS(=O)(=O)c1ccc(NC(=O)c2ccc(Br)o2)cc1	0.0733
CC1(C)CC2CC(C)(CN2C(=O)c2cccs2)C1 (stereo not given)	-0.148
CCOc1ccc(NC(=O)c2ccccc2NS(C)(=O)=O)cc1	-0.756
Cc1ccc(Cl)cc1-n1c(=O)cc(N2CCN(C(=O)c3ccco3)CC2)[nH]c1=O	0.259
Cc1cc(-c2csc(N)n2)c(C)n1CCc1ccccc1	0.549
O=C1OC(N2CCN(C(=O)c3ccco3)CC2)c2ccccc21 (stereo not given)	0.502
O=C(O)CCN=C1CCCc2ccccc2N1	0.441

SMILES	z-score
COc1cc(S(=O)(=O)Nc2cccnc2)ccc1F	-0.219
O=S(=O)(Cc1ccccc1)N1CCCC1	-0.328
COc1cccc(C(=O)N2N=C(c3cccc(OC)c3)CC2(O)C(F)(F)F)c1 (stereo not given)	0.00352
CCOC(=O)C1CCN(C(=O)C23CC4CC(CC(C4)C2)C3)CC1	0.212
C/C=C/c1ccc(OCCCNC(C)CC)c(OC)c1 (stereo not given)	0.208
O=C1O/C(=C\C(=O)N2CCOCC2)c2ccccc21	0.364
O=C1CC(N2CCN(c3ccc(C(=O)c4ccc(F)cc4)cc3)CC2)C(=O)N1 (stereo not given)	-1.07
Cc1c(C(=O)NCCN2CCOCC2)sc2nc(-c3ccc(F)cc3)cn12	-0.908
Cc1cccc(C)c1NC(=O)CSc1nnnn1-c1ccc(C(=O)O)cc1	-0.332
Cc1ccc2nc(NCCCN3CCOCC3)c(C=NCCCN3CCOCC3)c(=O)n2c1	-0.174
O=C(Nc1ccc(-c2noc(-c3ccccc3F)n2)cc1)c1cccs1	-0.126
CCOc1ccc(N=Cc2c(C)[nH]n(-c3nc4ccccc4[nH]3)c2=O)cc1	0.0911
COc1cccc(C(=O)N/N=C/c2cn[nH]c2-c2ccc(OC)cc2OC)c1	-1.31
Cc1cc(C)cc(C(=O)NC(=S)Nc2ccc3[nH]c(=O)[nH]c3c2)c1	-0.217
N#CCCN/N=C(\Cc1nc2ccccc2[nH]1)c1ccccc1	0.0244
COc1cc(OC)c2nc(C)c3c(c2c1)N(c1ccc(O)cc1)CC3	active: 3.3
COc1cccc(C2(c3cccc(OC)c3)CC2C(=O)Nc2ccccc2Cl)c1 (stereo not given)	0.0271
O=C1CSC(c2cn(-c3ccccc3)nc2-c2cc3ccccc3oc2=O)N1Cc1ccco1 (stereo not given)	0.104
CC(C)n1nnnc1SCC(=O)c1ccc2c(c1)OCCO2	-0.226
CN(C)S(=O)(=O)c1ccc(N2CCCC2)c(C(=O)Nc2nc(-c3ccc(F)cc3)cs2)c1	-0.117
COCCn1c(SCc2cccnc2)nnc1-c1ccco1	-0.142
Cn1cc(C(=O)N2CCN(C(=O)c3ccco3)CC2)c2c3ccccc3n(C)c2c1=O	-0.065

SMILES	z-score
NS(=O)(=O)c1ccc2c(c1)C1C=CCC1C(C1CC=CCC1)N2 (stereo not given)	-0.272
Cc1cc(C(F)F)n2nc(C(=O)Nc3sc4c(c3C#N)CCC(C)C4)nc2n1 (stereo not given)	0.262
Cc1nc(CS(=O)(=O)c2ccccc2)cc(Sc2ccc(Cl)cc2)n1	-0.767
O=C(Nc1cccc(S(=O)(=O)Nc2ccc(Cl)cc2)c1)c1ccc(Cl)nc1	0.238
N/C(=N\c1nc2ccccc2o1)NC(=O)c1ccccc1	-0.339
CCOC(=O)c1cnc2ccc(OCC)cc2c1N(C)Cc1ccccc1	-0.413
COc1ccc(-n2nc(C(=O)Nc3ccc4c(c3)OCO4)c3c4ccccc4n(C)c3c2=O)cc1	-0.137
Cc1cc(NS(=O)(=O)c2ccc(NC(=O)Nc3ccccc3)cc2)no1	0.82
C=CCc1cc(C)ccc1OCCn1ccnc1	-0.488
CCOC(=O)C1=C(c2ccccc2)N2CCS(=O)(=O)N=C2S1	0.367
COCCCNC(=S)NNC(=O)c1ccoc1C	1.33
CCOC(=O)c1c(N)sc(=S)c2c1CCC2	-0.542
CC(=O)Nc1ccc(S(C)(=O)=O)c(C)c1	0.46
Cc1ccc(N2C(=O)CC(Sc3ncn[nH]3)C2=O)cc1 (stereo not given)	-0.0312
COc1ccc(C(=O)Nc2cc(OCc3ccccc3)c(Cl)cc2Cl)cc1	-0.094
Cc1ccc(NC2=C(Cl)C(=O)OC2OC(=O)c2ccco2)c(C)c1 (stereo not given)	-0.515
O=S1(=O)N=C(N/N=C/C=C/c2ccccc2)c2ccccc21	0.384
CC1(C)CC(=O)C2=C(C1)Nc1ccccc1NC2c1nc2ccccc2[nH]1 (stereo not given)	-0.113
O=C1c2ccccc2C(=O)N1CCCCN(C(=O)c1cc([N+](=O)[O-])ccc1Cl)c1ccc(Cl)cc1	0.201
N#C/C(=C/c1ccc(Cl)cc1)NC(=O)c1ccccc1	-0.268
CCOC(=O)c1nnsc1NC(C)=O	0.312
Cc1nnc(C)n1/N=C/c1cc(Br)cc(Br)c1O	-0.423

Reference: PubChem BioAssay AID488969 (Vanderbilt High Throughput Screening Facility, 2010)
